± gives the uncertainty stated by the source. This continues a long series; more values of the same kind are listed elsewhere.
Assay: xn = mol fraction of the nth substance listed
Details: 101 kPa

CCCCCCCCCCCCOS(=O)(=O)[O-].[Na+] + O
electrical conductivity [S/m]
Details	288.15 K	298.15 K
x1 = 7.35e-06	0.00102 ± 0.0006	0.00389 ± 0.0006
x1 = 1.463e-05	0.00278 ± 0.00061	0.00675 ± 0.00061
x1 = 2.184e-05	0.00515 ± 0.00061	0.00896 ± 0.00062
x1 = 2.898e-05	0.00708 ± 0.00062	0.0117 ± 0.00064
x1 = 3.604e-05	0.00931 ± 0.00064	0.0145 ± 0.00066
x1 = 4.303e-05	0.0116 ± 0.00066	0.0171 ± 0.00068
x1 = 4.997e-05	0.0139 ± 0.00069	0.0198 ± 0.00071
x1 = 5.683e-05	0.0162 ± 0.00072	0.0224 ± 0.00072
x1 = 6.362e-05	0.0186 ± 0.00071	0.0244 ± 0.00074
x1 = 7.036e-05	0.0202 ± 0.00072	0.027 ± 0.00081
x1 = 7.703e-05	0.0225 ± 0.00079	0.0296 ± 0.00085
x1 = 8.364e-05	–	0.0321 ± 0.00088
x1 = 9.018e-05	0.0269 ± 0.00081	0.0347 ± 0.00091
x1 = 9.658e-05	0.0286 ± 0.00082	0.0371 ± 0.00094
x1 = 0.0001031	0.0307 ± 0.0009	0.0395 ± 0.00098
x1 = 0.000109	–	0.04113 ± 2e-05
x1 = 0.0001094	0.0328 ± 0.00095	0.0419 ± 0.001
x1 = 0.0001157	0.035 ± 0.00098	0.0442 ± 0.001
x1 = 0.0001163	–	0.04369 ± 2e-05
x1 = 0.000122	0.037 ± 0.00099	0.0466 ± 0.0011
x1 = 0.0001243	–	0.04657 ± 2e-05
x1 = 0.0001281	0.039 ± 0.0011	0.0488 ± 0.0011
x1 = 0.0001331	–	0.04988 ± 2e-05
x1 = 0.0001342	0.0411 ± 0.00099	0.0509 ± 0.001
x1 = 0.0001404	0.0425 ± 0.00077	0.0524 ± 0.00098
x1 = 0.0001434	–	0.05351 ± 2e-05
x1 = 0.0001465	0.0432 ± 0.00075	0.0543 ± 0.001
x1 = 0.0001524	0.0444 ± 0.00079	0.0559 ± 0.00095
x1 = 0.0001584	0.0452 ± 0.00078	0.0571 ± 0.00086
x1 = 0.0001641	0.0462 ± 0.00076	0.0582 ± 0.00083
x1 = 0.0001699	0.0469 ± 0.00075	0.0592 ± 0.00082
x1 = 0.0001705	–	0.05875 ± 3e-05
x1 = 0.0001757	0.0478 ± 0.00081	0.0601 ± 0.00081
x1 = 0.0001814	0.0487 ± 0.00082	0.0609 ± 0.00081
x1 = 0.000187	0.0495 ± 0.00077	0.0617 ± 0.00082
x1 = 0.0001928	0.0501 ± 0.00073	–
x1 = 0.0001982	0.0507 ± 0.00073	–
x1 = 0.0002038	0.0513 ± 0.0007	–
x1 = 0.0002092	0.0517 ± 0.00068	–
x1 = 0.0002147	0.0521 ± 0.00071	–
x1 = 0.00022	0.0527 ± 0.00076	–
x1 = 0.0002254	0.0532 ± 0.00076	–
x1 = 0.0002306	0.0537 ± 0.00075	–
x1 = 0.0002358	0.0542 ± 0.00077	–
x1 = 0.0002411	0.0548 ± 0.00081	–
x1 = 0.0002463	0.0554 ± 0.00084	–

Source: the CheMixHub ionic liquid set
